Source: PMC4336329 (PLoS ONE, 2015)
Among all 310,000 compounds or so, about 2,200 (0.71%) showed an effect of 50% or more. Effects have a minus sign here. This is one part of the list.

Target: human ether-à-go-go-related gene (hERG) potassium channel (human, UniProt Q12809)
Test: primary screen, population patch clamp on CHO cells stably expressing hERG

human ether-à-go-go-related gene (hERG) potassium channel, sequence (Q12809 whole entry, looked up): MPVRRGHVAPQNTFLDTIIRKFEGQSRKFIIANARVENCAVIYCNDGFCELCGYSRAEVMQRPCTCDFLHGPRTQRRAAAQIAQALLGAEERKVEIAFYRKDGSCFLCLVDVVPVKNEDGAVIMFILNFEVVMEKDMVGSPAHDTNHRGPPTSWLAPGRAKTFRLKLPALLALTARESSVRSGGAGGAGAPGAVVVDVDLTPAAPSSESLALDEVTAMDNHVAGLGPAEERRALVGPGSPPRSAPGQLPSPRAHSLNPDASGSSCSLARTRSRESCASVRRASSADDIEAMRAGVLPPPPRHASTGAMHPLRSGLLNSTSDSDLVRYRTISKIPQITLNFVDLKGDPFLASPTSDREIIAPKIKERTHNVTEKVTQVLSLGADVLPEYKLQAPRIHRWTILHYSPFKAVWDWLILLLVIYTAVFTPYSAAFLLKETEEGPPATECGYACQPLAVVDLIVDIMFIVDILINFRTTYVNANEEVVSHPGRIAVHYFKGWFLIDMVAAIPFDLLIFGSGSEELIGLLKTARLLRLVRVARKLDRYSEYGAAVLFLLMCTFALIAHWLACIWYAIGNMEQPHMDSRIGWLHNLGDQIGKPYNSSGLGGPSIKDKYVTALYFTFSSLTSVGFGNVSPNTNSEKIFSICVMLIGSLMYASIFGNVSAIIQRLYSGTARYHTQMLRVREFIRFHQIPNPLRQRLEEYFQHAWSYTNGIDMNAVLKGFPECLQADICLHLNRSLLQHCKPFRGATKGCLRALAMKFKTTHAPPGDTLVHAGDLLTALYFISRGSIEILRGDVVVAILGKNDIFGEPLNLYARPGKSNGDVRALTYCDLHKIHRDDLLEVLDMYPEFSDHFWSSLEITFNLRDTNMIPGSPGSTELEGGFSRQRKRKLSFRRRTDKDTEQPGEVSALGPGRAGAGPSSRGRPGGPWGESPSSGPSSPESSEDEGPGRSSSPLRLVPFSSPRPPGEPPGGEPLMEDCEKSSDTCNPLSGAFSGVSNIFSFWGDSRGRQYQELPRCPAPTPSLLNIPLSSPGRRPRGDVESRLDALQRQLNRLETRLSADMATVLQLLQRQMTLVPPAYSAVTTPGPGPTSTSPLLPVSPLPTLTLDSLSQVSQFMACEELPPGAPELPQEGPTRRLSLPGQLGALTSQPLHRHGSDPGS

Compound	hERG current change (%, negative = inhibition) at 1uM [%]
Cc1cccc(C(=O)Nc2cc(OCc3cccc(F)c3)c(Cl)cc2Cl)c1	-9.98
O=C(O)CNC(=O)c1nc(-c2ccccc2)n(-c2ccccc2)n1	12.9
CCOC(=O)c1cccc(Nc2ncnc3ccc(C)cc23)c1	-3.73
COc1ccc(S(=O)(=O)NCc2cccnc2)cc1C(=O)N1CCCCC1	8.84
COc1ccc(NS(=O)(=O)c2cccc(C(=O)NCc3ccccc3CN3CCCC3)c2)cc1	-12
Cc1cn(C2OC[C@@H](O)[C@@H]2CO)c(=O)[nH]c1=O (stereo partly drawn)	3.67
COc1cc(C(=O)N[C@@H](Cc2c[nH]c3ccccc23)C(=O)O)cc(OC)c1OC	-3.01
CCc1ccc(NC(=O)[C@H](C)NC(=O)C2CCN(C(=O)[C@@H](N)CC(C)C)CC2)cc1.Cl	12
CSc1cccc(NC(=O)Nc2ccc(Cl)cc2)c1	-4.3
O=C(NCc1ccc(F)cc1)C1C2C=CC3(CN(Cc4cccnc4)C(=O)C13)O2 (stereo not drawn)	4.52
CNS(=O)(=O)c1cccc(C(=O)NCC2CCCCC2)c1	15.5
Cc1cc(=O)oc2cc(OCC(=O)N3CCN(c4ccccc4)CC3)c(Cl)cc12	9.94
COc1ccc(C2NC(=O)NC(C)=C2[N+](=O)[O-])cc1OC (stereo not drawn)	3.92
Nc1nc2ccc([N+](=O)[O-])c(N)c2s1	0.509
O=C(O)c1cn2c3c(ccc(Cl)c3c1=O)OCC2	9.87
O=C(Cc1cccc2ccccc12)Nc1ccccc1Br	16.3
O=C(COc1ccc(S(=O)(=O)N2CCOCC2)cc1Cl)NCc1ccccn1	17.1
C#CCOCCOCCOCCNc1nc(N2CCN(C(=O)CCCCCCCCCCNC(=O)[C@@H](CCC(=O)O)n3cc(CCCCCN)nn3)CC2)nc(N2CCN(C(=O)CCCCCCCCCCNC(=O)[C@@H](CCC(=O)O)n3cc(CCCCCN)nn3)CC2)n1	-7.24
COc1ccc2ccccc2c1CN1CCN(C)CC1	3.67
CN(C)c1ccc(NC(=O)CN2C(=O)CC(c3ccccc3)=Nc3ccccc32)cc1	7.35
Cc1ccc(S(=O)(=O)Nc2ccc(Br)cc2/C=N/n2cnnc2)cc1	11.1
Cc1cc(NS(=O)(=O)c2ccc(NC(=O)Nc3cccc(C(F)(F)F)c3)cc2)no1	12.6

Compound	hERG current change (%, negative = inhibition) at 1uM [%]
O=C(Cc1cc(C(=O)O)c2ccccc2n1)Nc1ccccc1	17.5
Cc1ccc(CCCNC(=O)C2CCC(=O)N(Cc3cccc(F)c3)C2)cc1 (stereo not drawn)	-22
COc1ccc([C@H]2CC(=O)C=C(c3ccc(C)cc3)C2)cc1	7.36
O=C1CCCC2C3CCCN4CCCC(CN12)C34 (stereo not drawn)	14.6
O=C(CC1C(=O)NCCN1Cc1cccc(Oc2ccccc2)c1)NCCc1ccncc1 (stereo not drawn)	-2.6
Cc1ccc(N/C=C2\C(=O)N(c3ccc(F)cc3F)C(c3cccnc3)S2(=O)=O)cc1 (stereo not drawn)	6.43
CCOc1ccc(CCNC(=O)C2CCN(c3nn4c(=O)cc(C)nc4s3)CC2)cc1OCC	7.91
Cc1ccc(-n2nc3c(c2NC(=O)c2cccs2)CS(=O)(=O)C3)cc1C	-10.3
CN(Cc1cn(C)nc1-c1ccc(Oc2ccccc2)cc1)Cc1cnc2ccccn12	1.55
CCOc1ccc(NC(=O)N[C@@H](Cc2ccccc2)C(=O)O)cc1	10.9
O=C(O)C(=O)O.OC(CNCCc1ccc(C(F)(F)F)cc1)COC(c1ccccc1)c1ccccc1 (stereo not drawn)	6.38
Cc1ccc2[nH]c(CSc3ccccc3)cc(=O)c2c1	12.4
O=c1c2ccccc2n2c(-c3ccc(F)cc3)nnc2n1Cc1ccccc1	6.71
CCOc1ccc(CCNC(=O)COC(=O)C2=NNC(=O)CC2)cc1OCC	9.57
Cn1cccc1C(=S)N=P(C1CCCCC1)(N1CCOCC1)N1CCOCC1	6.29
O=C(/C=C/c1ccc(S(=O)(=O)NCc2ccco2)cc1)N1CCN(c2ccccc2)CC1	5.15
CC(=O)Nc1ccc(NC(=O)C(C)OC(=O)CNC(=O)c2cccs2)cc1 (stereo not drawn)	12.5
O=C(c1ccco1)N1CCN(Cc2cccc(C(F)(F)F)c2)CC1	10.8
COc1ccccc1-c1ccc(SCC(=O)Nc2cc(C)on2)nn1	5.82
Cc1nnc(SCC(=O)NCc2ccco2)n1Cc1ccccc1	15.9
COc1ccccc1Oc1ccc(N/C=C/C(=O)C(C)(C)C)cc1	8.32
COc1ccccc1NC(=O)c1ccc(NC(=O)CN2CCN(C(=O)c3ccco3)CC2)cc1	-6.88

Compound	hERG current change (%, negative = inhibition) at 1uM [%]
Cc1cc(=O)[nH]c(CN2CCC(c3ccccc3)CC2)n1	12.9
CC(=O)Nc1ccc(S(=O)(=O)NC(CC(=O)N(C)Cc2ccccc2)C(C)C)cc1 (stereo not drawn)	11.5
O=C(NC1CCCCC1)C(c1ccc(O)cc1)N(C(=O)c1cnccn1)c1cccc(F)c1 (stereo not drawn)	5.26
COc1ccccc1NC(=O)c1ccc(-n2cccn2)nc1	6.59
CC(=O)Nc1ccc(NC(=O)c2ccc(NS(=O)(=O)c3cc(C(C)(C)C)ccc3C)cc2)cc1	9.04
CCC(C)(C(=O)NC1CCCC1)N(C)C(=O)c1ccccn1 (stereo not drawn)	6.56
CC(NC(N)=O)C(=O)OCC(=O)c1ccc(-c2ccccc2)cc1 (stereo not drawn)	7.97
CCc1cc(=O)oc2cc3occ(-c4ccc(OC)c(F)c4)c3cc12	8.21
C=CCNC(=S)N1CCN(CCN=CC2=C(O)CC(c3cccs3)CC2=O)CC1 (stereo not drawn)	-10.1
CCOC(=O)c1ccc(-n2c(=O)[nH]c3ccccc3c2=O)cc1	7.25
COc1ccc(-c2ccc(NS(=O)(=O)c3ccc([N+](=O)[O-])cc3)cc2)nn1	12.4
Cc1occc1C(=O)O/N=C(\N)c1ccccc1	2.67
CC(=O)c1ccc(OCc2cc(C(=O)NC(C)c3cnn(C)c3)no2)cc1 (stereo not drawn)	9.57
COc1ccccc1N1C(=O)NC(=O)/C(=C/c2ccc([N+](=O)[O-])s2)C1=O	6.48
CN(Cc1nccn1C)C(=O)c1ccc2nc(Cc3ccccc3F)oc2c1	9.98
CC(C)CCNC(=S)NC1CCCC1	5.34
Cc1cccc(NC(=O)CCCN2C(=O)C(c3ccccc3)Oc3cccnc32)c1C (stereo not drawn)	11.8
CC(C)CNS(=O)(=O)c1ccc(C(=O)Nc2ccc3c(c2)OCO3)cc1	-0.455
COCCn1c(SCC(=O)Nc2cc(C)cc(C)c2)nnc1C(C)C	-0.478
O=C1CC(c2ccccc2)CC(O)=C1C=Nc1cccc(Cl)c1 (stereo not drawn)	8.91
COc1ccc(Cc2nnc(SCC(=O)NCCc3ccccc3)o2)cc1	7.05
O=c1c2ccccc2nc(-c2ccc(Cl)cc2Cl)n1O	-19.5

Compound	hERG current change (%, negative = inhibition) at 1uM [%]
O=c1[nH]c2cccnc2n(CCNc2ncc(C(F)(F)F)cc2Cl)c1=O	3.23
COc1ccccc1OCCCCNC(C)(C)C	7.5
COc1ccc(/C(C)=N/NC(=O)Cc2c(C)nc(C)[nH]c2=O)cc1	8
COc1cccc(/C=N/NC(=O)c2ccoc2C)c1	10.9
O=C(Oc1ccc(Br)cc1C(=S)N1CCCC1)c1ccccc1Cl	10.9
Cc1ccccc1N1CCN(Cc2c[nH]c3ccccc23)CC1	-17
Cc1ccc(-c2nc3ncccc3n2O)cc1	13
COc1ccc(-c2noc(CCC(=O)Nc3cccnc3)n2)cc1	21.2
COC(C(=O)Nc1ccc(S(=O)(=O)Nc2ccc(C)c(C)c2)cc1)c1ccccc1 (stereo not drawn)	1.3
Cc1cc(NC(=O)c2ccco2)no1	13.6
Cc1ccc(-n2nc3ccc(NC(=O)c4ccc5c(c4)OCO5)cc3n2)cc1	2.21
O=C(Nc1cccc(C(F)(F)F)c1)c1ccco1	-2.11
Cc1cc(C)n(-c2ncc3c(n2)N(CCO)CCOC3=O)n1	15.1
CC(C)(C)OC(=O)N1CCNc2ccccc2C1	8.34
O=C(NNS(=O)(=O)c1ccccc1)c1sccc1-n1cccc1	7.39
CCOC(=O)CC1(NC(=O)C2CCC(=O)N(CCc3ccc(OC)cc3)C2)CCCCC1 (stereo not drawn)	5.85
Cc1nn(Cc2ccccc2Cl)c(C)c1C(=O)N(C)CC(=O)Nc1cccc(F)c1	-6.18
COC(=O)c1cc(C#N)c(Oc2cccc(C)c2C)nc1C	8.72
O=C(NCCCCNC(=O)C1CCCC1)C1CCCC1	0.747
O=C(Nc1cccnc1)Nc1ccc2c(c1)OCO2	-5.98
COc1ccc(C2CC(=O)C(C=NCCN3CCN(C(C)=O)CC3)=C(O)C2)cc1 (stereo not drawn)	0.835
